# Results taken from PubChem BioAssay AID624417 (National Center for Advancing Translational Sciences (NCATS), 2012).
# In all, about 410,000 compounds went through this assay and about 6,400 (1.6%) were called active. Inconclusive means that the source gave no clear call. Such entries were picked first, then a sample of the others. Calls come from the whole dose curve; as a rule, active = well fitted inhibition curve with a large enough effect; inconclusive = small, poorly fitted or top-dose-only effect; inactive = no such curve, though single readings can be large or run the other way. Potencies of inconclusive entries are left out as doubtful fits.
# Target: Glucagon-like peptide 1 receptor (Homo sapiens) (UniProt P43220)
# Assay: qHTS of GLP-1 Receptor Inverse Agonists (Inhibition Mode); note: nearly all actives have a fitted effect of over 55% in size
# Settings: HEK293 GLP-1R CRE-luciferase, luminescence, 24 h, GLP-1R form is constitutively active; series mostly up to 38.3 µM
# Procedure, shortened: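 Readout was luciferase luminescence, measured 12 min after detection reagent at room temperature. Beforehand, GLP-1R reporter HEK293 cells had sat 12 h, then received compounds for 24 hr at 37 deg C.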
# Potency is the fitted concentration of half-maximal effect; tags give direction and shape of the fitted curve.
# UniProt P43220, sequence (P43220 whole entry, looked up): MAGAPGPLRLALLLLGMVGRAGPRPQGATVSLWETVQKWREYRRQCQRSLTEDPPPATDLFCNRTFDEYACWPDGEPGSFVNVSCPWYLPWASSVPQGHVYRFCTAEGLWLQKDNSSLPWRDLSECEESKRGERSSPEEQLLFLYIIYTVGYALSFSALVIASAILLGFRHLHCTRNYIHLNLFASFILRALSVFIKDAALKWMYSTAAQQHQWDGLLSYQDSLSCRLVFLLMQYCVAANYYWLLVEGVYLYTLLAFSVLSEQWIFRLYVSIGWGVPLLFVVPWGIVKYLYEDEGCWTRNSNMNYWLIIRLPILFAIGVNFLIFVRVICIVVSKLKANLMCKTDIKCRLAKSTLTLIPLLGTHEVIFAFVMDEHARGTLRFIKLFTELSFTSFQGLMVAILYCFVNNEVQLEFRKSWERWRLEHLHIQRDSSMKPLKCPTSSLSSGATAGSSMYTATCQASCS
row,Compound,Potency
1,CCOC(=O)N1CCN(C(=O)c2ccc3nc4ccsc4c(=O)n3c2)CC1,inactive
2,COc1ccc(NC(=O)c2cc(S(=O)(=O)N3CCc4ccccc43)cn2C)cc1,"inconclusive [inhibitor, single point]"
3,Cc1cccc(CSC(Nc2ccc(F)cc2)=C(C#N)C#N)c1,"inconclusive [inhibitor, full curve, poor fit]"
4,O=C(CSc1nnc(SCc2ccccc2)s1)N/N=C/C=C/c1ccccc1[N+](=O)[O-],inactive
5,O=C(NCc1ccco1)c1cc(-c2ccccc2)on1,inactive
6,CCn1c(C(=O)N2CCC(C(=O)NCc3ccc(OC)cc3)CC2)cc2sccc21,"inconclusive [inhibitor, single point]"
7,CN1c2ccc(Cl)cc2C(=O)NC1C1CC=CCC1 (stereo not drawn),"inconclusive [inhibitor, single point]"
8,O=C(O)c1ccccc1C1=Nc2ccc(O)cc2Oc2cc(O)ccc21,inactive
9,CCc1cc(=O)[nH]c(SCC(=O)Nc2cc(C)on2)n1,inactive
10,COc1ccc([C@@H]2C[C@@H](c3ccccc3)Oc3cc(C)cc(C)c32)cc1,"inconclusive [inhibitor, partial curve, poor fit]"
11,CC(C)CN(C(=O)COC(=O)C1c2ccccc2Oc2ccccc21)C1CCS(=O)(=O)C1 (stereo not drawn),"inconclusive [inhibitor, partial curve, poor fit]"
12,C/C(=N\NC(=O)c1ccc(O)cc1)c1cccc(NC(=O)c2ccc(Cl)cc2)c1,"inconclusive [inhibitor, single point]"
13,Cc1cccc(NS(=O)(=O)c2ccc(Cl)c(C(=O)Nc3ccccc3C)c2)c1,"inconclusive [inhibitor, partial curve]"
14,CCCN(Cc1cccs1)C(=O)Nc1ccc(Br)c(C)c1,"inconclusive [inhibitor, single point]"
15,CC(C)Cn1c(-c2ccc(S(=O)(=O)N3CCCC3)cc2)csc1=Nc1ccccc1,"inconclusive [inhibitor, partial curve, poor fit]"
16,Cc1ccc(C(=O)N/C(=C\c2ccc(F)cc2)C(=O)NCCCn2ccnc2)cc1,inactive
17,COc1cccc(NC(=O)CN(C)C(=O)c2cn(-c3ccccc3)nc2-c2cccs2)c1,"inconclusive [inhibitor, partial curve, poor fit]"
18,Cn1nc(-c2ccccc2)c(CO)c1Oc1cccc(C(F)(F)F)c1,"inconclusive [inhibitor, partial curve, poor fit]"
